Results as given in PubChem BioAssay AID759 (NMMLSC, 2007).
Out of some 190,000 compounds screened, about 270 (0.14%) were called active. This list was built around the results that the source calls inconclusive (neither active nor inactive); the mix of calls is not that of the screen.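 The calls were made as follows: active = GTP binding activity at least 20% away from the 100% baseline, either lowered as inhibitor or raised as activator; inconclusive = flagged as likely green fluorescent, judged across all proteins in the well; inactive = the rest.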

biological target: GTPase HRas (Homo sapiens) (UniProt P01112); test: HRas wt fluorescent GTP binding changes, either direction – biochemical, wildtype, bead-based flow cytometry, multiplex, primary screen (AID 759); conditions: GST-Ras wt beads, Bodipy-FL-GTP binding, at 10 µM, actives lie on both sides;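 also: 0% = unlabeled GTP competition control and 100% = no-compound control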
Sequence of UniProt P01112 (P01112 whole entry, looked up): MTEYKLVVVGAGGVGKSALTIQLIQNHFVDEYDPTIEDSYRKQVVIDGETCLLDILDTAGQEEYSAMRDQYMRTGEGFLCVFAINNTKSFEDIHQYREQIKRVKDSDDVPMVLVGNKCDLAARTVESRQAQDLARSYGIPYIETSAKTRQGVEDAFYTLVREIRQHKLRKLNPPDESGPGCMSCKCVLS

| Structure (SMILES) | GTP binding activity |
| --- | --- |
| O=c1[nH]c(N/N=C\c2ccc(F)cc2)nc2ccccc12 | inactive: 98% |
| Cc1nc2ncnn2c(C)c1Cc1cccc(C(F)(F)F)c1 | inactive: 99% |
| COc1ccc(C)cc1NC(=O)C(NC(=O)c1cc(OC)c(OC)c(OC)c1)C(C)C (stereo unspecified) | inconclusive: 93% |
| COc1ccc(-n2c(C)nc3cc(C(=O)NCc4ccc5c(c4)OCO5)ccc32)cc1 | inconclusive: 86% |
| CCOC(=O)C1CCN(S(=O)(=O)c2cccc(-c3csc(C)n3)c2)CC1 | inactive: 98% |
| Nc1c([N+](=O)[O-])c(=O)oc2ccccc12 | inactive: 99% |
| CC(=O)c1cccc(NC(=O)COC(=O)c2n[nH]c3ccccc23)c1 | inactive: 96% |
| COc1cccc(C2CC(c3cccs3)=NN2C(=O)CSc2nc3ccccc3o2)c1OC (stereo unspecified) | inconclusive: 97% |
| Cn1c(=O)c2c(nc(N/N=C/c3ccco3)n2C)n(C)c1=O | inactive: 85% |
| Cc1nc2c(C(=O)NCc3ccccc3)c[nH]n2c(=O)c1Cl | inconclusive: 95% |
| Cc1ccc(Nc2nc(-c3c(C)nc4ncccn34)cs2)cc1 | inconclusive: 74% |
| O=C(Cc1ccccc1)Nc1nc2ccccc2[nH]1 | inconclusive: 104% |
| O=C(C1CCCO1)N1CCN(C(=S)Nc2ccccc2C(F)(F)F)CC1 (stereo unspecified) | inactive: 117% |
| OC1(c2ccc3c(c2)OCO3)CCN(Cc2ccccn2)CC1 | inconclusive: 103% |
| O=C(Cc1cccs1)N1CCN(S(=O)(=O)c2ccc(Br)cc2)CC1 | inactive: 96% |
| COc1ccccc1-c1ccc(SCc2cccc(F)c2)nn1 | inconclusive: 91% |
| Cc1ccc(C(=O)COC(=O)c2ccc3c(c2)C(=O)N(c2cccc4ncccc24)C3=O)cc1C | inconclusive: 84% |
| S=C(NCc1ccco1)Nc1ccc(Oc2ccccc2)cc1 | inactive: 98% |
| COc1cc2[nH]c3c(Cl)ncnc3c2cc1OC | inconclusive: 96% |
| O=C(CSc1ccsc1[N+](=O)[O-])N1CCN(c2ccccn2)CC1 | inactive: 95% |
| COc1ccc(C(=O)N2CCN(Cc3ccc4c(c3)OCO4)CC2)cc1[N+](=O)[O-] | inactive: 94% |

| Structure (SMILES) | GTP binding activity |
| --- | --- |
| NS(=O)(=O)c1ccc(-c2ccc(/C=C3\C(=O)Nc4cc(Cl)ccc43)o2)cc1 | active: 76% |
| CCOc1[nH]n(-c2ccc(Cl)cc2)c(=O)c1C=Nc1ccc(O)cc1 | inconclusive: 105% |
| CCOC(=O)C1CCN(C(=O)c2ccco2)CC1 | inconclusive: 102% |
| Cn1c(SCc2nnc(-c3ccccc3)o2)nc2ccccc21 | inactive: 100% |
| O=S(=O)(/N=C/N1CCOCC1)c1ccc(Cl)cc1 | inconclusive: 97% |
| CCCc1cc2c(cc1NC(=O)c1ccco1)OCO2 | inactive: 99% |
| O=C(Cn1cnc2cc([N+](=O)[O-])ccc2c1=O)NCc1ccc(Cl)cc1 | inactive: 84% |
| Cc1ccccc1C(=O)Nc1nc(=S)ss1 | inconclusive: 91% |
| Cc1cccc(N2CCN(C(=O)/C=C/c3cccs3)CC2C)c1 (stereo unspecified) | inconclusive: 87% |
| NNC(=O)c1nc[nH]c1C(=O)Nc1ccccc1[N+](=O)[O-] | inconclusive: 85% |
| CC1(C)C(=O)Nc2ccccc2N1C(=O)COc1cccnc1[N+](=O)[O-] | inactive: 97% |
| Cc1cc(C(=O)CN2C(=O)NC3(CCC(C)CC3)C2=O)c(C)n1C (stereo unspecified) | inconclusive: 95% |
| N#C/C(=C(/O)COc1ccc(Br)cc1)c1nnc2n1CCCCC2 | inactive: 81% |
| CCOc1ccc(-n2c(-c3ccco3)n[nH]c2=S)cc1 | inconclusive: 79% |
| Cn1c(=O)cc(SCC(=O)N2CCN(C(=O)c3ccco3)CC2)c2ccccc21 | inconclusive: 105% |
| CC12CCC(C(=O)NCc3ccc4c(c3)OCO4)(OC1=O)C2(C)C (stereo unspecified) | inactive: 101% |
| O=C(CSc1nc(C2CC2)nc2ccccc12)Nc1ccccc1N1CCOCC1 | inactive: 98% |
| O=C(NCc1ccccc1)C1=C[C@H](C2CC2)C[C@H](OCCCCO)O1 | inactive: 100% |
| Cc1ccc(/C=C(\CCC(=O)O)c2nc3ccccc3s2)cc1[N+](=O)[O-] | inactive: 86% |
| CCOC(=O)Cc1nnc(NC(=O)C(CC)Sc2nnc3c4ccccc4n(C)c3n2)s1 (stereo unspecified) | inconclusive: 96% |
| Cn1c(N=Nc2ccc(N3CCOCC3)cc2)[n+](C)c2ccccc21 | inconclusive: 95% |

| Structure (SMILES) | GTP binding activity |
| --- | --- |
| COc1ccc(Cl)cc1NC(=O)CN(C1CCCCC1)S(C)(=O)=O | inconclusive: 103% |
| COc1ccc(-c2nnc(SCC(=O)NNC(=O)Cc3ccccc3)n2C)cc1OC | inconclusive: 102% |
| Cc1cccn2c(=O)c(C=O)c(N3CCN(c4ccc(F)cc4)CC3)nc12 | inactive: 95% |
| CCOC(=O)c1sc(NC(=O)CSc2nnc(Cc3ccccc3)o2)c(C#N)c1C | inactive: 83% |
| Cc1c(Cl)cccc1N=Cc1ccc([N+](=O)[O-])s1 | inconclusive: 109% |
| N#C/C(=N\Nc1ccc(S(=O)(=O)N2CCc3ccccc32)cc1)C(N)=S | inconclusive: 92% |
| Cc1cccc(-c2nnc3n2N=C(c2ccccc2)CS3)c1 | inactive: 95% |
| CCCCOC(=O)C1CCCC(C)N1 (stereo unspecified) | inconclusive: 106% |
| CC(C)CSc1nsc(N)n1 | inconclusive: 104% |
| Cc1cc(C)c(S(=O)(=O)Nc2cccc(S(=O)(=O)NC3=NCCC3)c2)c(C)c1 | inactive: 96% |
| N=c1c2c3c(sc2ncn1CCCO)CCCC3 | inconclusive: 105% |
| COc1nc(-c2ccccc2)ccc1-c1noc(COc2ccccc2)n1 | inconclusive: 92% |
| O=C1N(c2ccccc2)C(c2ccc(Cl)cc2)N2CCCN12 (stereo unspecified) | inactive: 95% |
| Cc1nnc(SCC(=O)NCc2ccccc2)[nH]c1=O | inconclusive: 101% |
| O=C(O)COc1ccccc1/C=N/NC(=O)c1cc(-c2ccc(F)cc2)nc2ccccc12 | inactive: 87% |
| Cc1ccc(-n2c(SCC(N)=O)nnc2-c2cccnc2)c(C)c1 | inactive: 101% |
| CNS(=O)(=O)c1cc2c3c(cccc3c1)C(=O)NC2=O | inconclusive: 94% |
| CCC(CO)NCc1ccccc1OC(C)C (stereo unspecified) | inactive: 98% |
| C=CCn1c(=NC(=O)c2ccccc2[N+](=O)[O-])sc2cc(S(C)(=O)=O)ccc21 | inactive: 95% |
